One experiment concerns the target T1, Placental GF (UniProt P49763-2 21-149, limits assumed).
T1 construct: Bought reagent; also called PlGF; PLGF
T1 sequence (looked up): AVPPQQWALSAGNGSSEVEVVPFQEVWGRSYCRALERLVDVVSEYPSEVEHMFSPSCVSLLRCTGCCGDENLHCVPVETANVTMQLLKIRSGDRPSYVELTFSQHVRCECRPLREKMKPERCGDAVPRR
Put plainly: Biacore SPR.

For another experiment, the target named is T2, DLL ECD His tag (UniProt Q9NR61 fragment, limits assumed).
T2 construct: extracellular domain; Bought reagent; also called DLL4; DLL-4; not shown: His tag
Briefly: Biacore SPR.

Experiment [1] has as its target T3, PlGF (Placental GF) (UniProt P49763-2 21-149, limits assumed).
T3 sequence (looked up): T1 sequence (looked up)
Briefly: SPR (Biacore); C-terminal VD.

Experiment [2] addresses T3, PlGF (Placental GF). Put plainly: SPR (Biacore); N-terminal VD.
Experiment [3] deals with T4, placental growth factor (PLGF) (UniProt P49763-2 21-149, limits assumed).
T4 construct: also called P1GF
T4 sequence (looked up): T1 sequence (looked up)
Briefly: ligand-receptor binding competition assay, PlGF binding to VEGFR1; N-terminal VD.

Experiment [4] has as its target T5, NRP1 (Neuropilin-1 Npn-1-His tag) (UniProt O14786-2 22-644). Put plainly: SPR (Biacore); N-terminal VD.
The target in experiment [5] is T5, NRP1 (Neuropilin-1 Npn-1-His tag). Put plainly: SPR (Biacore); C-terminal VD.
The next experiment addresses HGF (UniProt P14210 32-728). Put plainly: SPR (Biacore); N-terminal VD.

The values below come from patent publication US20100260668A1 (published 2010).

Sequence of HGF (P14210 32-728 limits assumed): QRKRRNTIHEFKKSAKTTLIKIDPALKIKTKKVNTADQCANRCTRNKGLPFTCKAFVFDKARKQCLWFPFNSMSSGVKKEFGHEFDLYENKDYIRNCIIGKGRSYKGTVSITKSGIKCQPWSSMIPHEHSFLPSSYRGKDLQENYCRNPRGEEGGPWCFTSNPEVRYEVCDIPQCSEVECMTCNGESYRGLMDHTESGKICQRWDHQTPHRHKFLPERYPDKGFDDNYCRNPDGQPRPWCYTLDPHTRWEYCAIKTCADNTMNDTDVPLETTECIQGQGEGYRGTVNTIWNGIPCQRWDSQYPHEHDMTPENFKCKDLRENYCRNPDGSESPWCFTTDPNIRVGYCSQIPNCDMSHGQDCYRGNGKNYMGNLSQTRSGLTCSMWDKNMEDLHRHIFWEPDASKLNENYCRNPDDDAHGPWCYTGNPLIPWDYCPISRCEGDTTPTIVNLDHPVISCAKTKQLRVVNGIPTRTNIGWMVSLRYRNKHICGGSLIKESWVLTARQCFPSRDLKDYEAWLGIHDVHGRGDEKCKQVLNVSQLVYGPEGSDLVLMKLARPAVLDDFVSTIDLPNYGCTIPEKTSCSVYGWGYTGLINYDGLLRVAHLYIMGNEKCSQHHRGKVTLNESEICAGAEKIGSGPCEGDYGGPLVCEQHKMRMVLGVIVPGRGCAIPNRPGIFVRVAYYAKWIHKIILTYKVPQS

B1: DVD257 (bispecific antibody, human IgG1, kappa)
heavy: EVQLVESGGGLVQPGGSLRLSCAASGFTFTDNWISWVRQAPGKGLEWVGYISPNSGFTYYADSVKGRFTISADTSKNTAYLQMNSLRAEDTAVYYCARDNFGGYFDYWGQGTLVTVSSASTKGPQVQLQQSGAELVKPGASVKISCKASGYTFTDYYINWVKLAPGQGLEWIGWIYPGSGNTKYNEKFKGKATLTIDTSSSTAYMQLSSLTSEDTAVYFCVRDSPFFDYWGQGTLLTVSS[omitted - human IgG1 constant region]
light: DIQMTQSPSSLSASVGDRVTITCRASQDVSTAVAWYQQKPGKAPKLLIYSASFLYSGVPSRFSGSGSGTDFTLTISSLQPEDFATTYYCQQSYTGTVTFGQGTKVEIKRTVAAPDIVLTQSPDSLAVSLGERVTMNCKSSQSLLNSGMRKSFLAWYQQKPGQSPKLLIYWASTRESGVPDRFTGSGSGTDFTLTISSVQAEDVAVYYCKQSYHLFTFGSGTKLEIKRTVAAPSVFIFPPSDEQLKSGTASVVCLLNNFYPREAKVQWKVDNALQSGNSQESVTEQDSKDSTYSLSSTLTLSKADYEKHKVYACEVTHQGLSSPVTKSFNRGEC
notes: N-terminal VD DLL4, C-terminal VD PlGF; also called 7H; VD257L
As to B1, in the experiment with Placental GF, the equilibrium dissociation constant (Kd) is 367 pM, the koff was 0.000111 s⁻¹ and the on-rate constant (kon) is 302000 M⁻¹ s⁻¹. In the experiment with DLL ECD His tag, this molecule yielded a Kd of 234 pM, a koff of 0.000196 s⁻¹ and an on-rate (kon) of 835000 M⁻¹ s⁻¹.

B2: DVD259 (bispecific antibody, human IgG1, kappa)
heavy: EVQLVESGGGLVQPGGSLRLSCAASGYTFTNYGMNWVRQAPGKGLEWVGWINTYTGEPTYAADFKRRFTFSLDTSKSTAYLQMNSLRAEDTAVYYCAKYPHYYGSSHWYFDVWGQGTLVTVSSASTKGPQVQLQQSGAELVKPGASVKISCKASGYTFTDYYINWVKLAPGQGLEWIGWIYPGSGNTKYNEKFKGKATLTIDTSSSTAYMQLSSLTSEDTAVYFCVRDSPFFDYWGQGTLLTVSS[omitted - human IgG1 constant region]
light: DIQMTQSPSSLSASVGDRVTITCSASQDISNYLNWYQQKPGKAPKVLIYFTSSLHSGVPSRFSGSGSGTDFTLTISSLQPEDFATYYCQQYSTVPWTFGQGTKVEIKRTVAAPDIVLTQSPDSLAVSLGERVTMNCKSSQSLLNSGMRKSFLAWYQQKPGQSPKLLIYWASTRESGVPDRFTGSGSGTDFTLTISSVQAEDVAVYYCKQSYHLFTFGSGTKLEIKRTVAAPSVFIFPPSDEQLKSGTASVVCLLNNFYPREAKVQWKVDNALQSGNSQESVTEQDSKDSTYSLSSTLTLSKADYEKHKVYACEVTHQGLSSPVTKSFNRGEC
notes: N-terminal VD VEGF, C-terminal VD PlGF; also called VD259H; VD259L
In the experiment with PlGF (Placental GF) [1], B2 returned a Kd of 330 pM, an off-rate (koff) of 9.87e-05 s⁻¹ and an on-rate (kon) of 299000 M⁻¹ s⁻¹.

B3: DVD260 (bispecific antibody, human IgG1, kappa)
heavy: QVQLQQSGAELVKPGASVKISCKASGYTFTDYYINWVKLAPGQGLEWIGWIYPGSGNTKYNEKFKGKATLTIDTSSSTAYMQLSSLTSEDTAVYFCVRDSPFFDYWGQGTLLTVSSASTKGPEVQLVESGGGLVQPGGSLRLSCAASGYTFTNYGMNWVRQAPGKGLEWVGWINTYTGEPTYAADFKRRFTFSLDTSKSTAYLQMNSLRAEDTAVYYCAKYPHYYGSSHWYFDVWGQGTLVTVSS[omitted - human IgG1 constant region]
light: DIVLTQSPDSLAVSLGERVTMNCKSSQSLLNSGMRKSFLAWYQQKPGQSPKLLIYWASTRESGVPDRFTGSGSGTDFTLTISSVQAEDVAVYYCKQSYHLFTFGSGTKLEIKRTVAAPDIQMTQSPSSLSASVGDRVTITCSASQDISNYLNWYQQKPGKAPKVLIYFTSSLHSGVPSRFSGSGSGTDFTLTISSLQPEDFATYYCQQYSTVPWTFGQGTKVEIKRTVAAPSVFIFPPSDEQLKSGTASVVCLLNNFYPREAKVQWKVDNALQSGNSQESVTEQDSKDSTYSLSSTLTLSKADYEKHKVYACEVTHQGLSSPVTKSFNRGEC
notes: N-terminal VD PlGF, C-terminal VD VEGF; also called VD260H; VD260L
In the experiment with PlGF (Placental GF) [2], B3 had a Kd of 12 pM, a koff of 5.14e-05 s⁻¹ and an on-rate constant (kon) of 4.27e+06 M⁻¹ s⁻¹.

B4: DVD587 (bispecific antibody, human IgG1, kappa)
heavy: QVQLQQSGAELVKPGASVKISCKASGYTFTDYYINWVKLAPGQGLEWIGWIYPGSGNTKYNEKFKGKATLTIDTSSSTAYMQLSSLTSEDTAVYFCVRDSPFFDYWGQGTLLTVSSASTKGPSVFPLAPEVQLVESGGGLVQPGGSLRLSCAASGYTFTNYGMNWVRQAPGKGLEWVGWINTYTGEPTYAADFKRRFTFSLDTSKSTAYLQMNSLRAEDTAVYYCAKYPHYYGSSHWYFDVWGQGTLVTVSS[omitted - human IgG1 constant region]
light: B3 light
notes: also called DVD587VH; DVD587VL
The molecule B4 displayed an IC50 in experiment [3] of 3650 pM.

B5: DVD579 (bispecific antibody, human IgG1, kappa)
heavy: B4 heavy
light: DIVLTQSPDSLAVSLGERVTMNCKSSQSLLNSGMRKSFLAWYQQKPGQSPKLLIYWASTRESGVPDRFTGSGSGTDFTLTISSVQAEDVAVYYCKQSYHLFTFGSGTKLEIKRTVAAPSVFIFPPDIQMTQSPSSLSASVGDRVTITCSASQDISNYLNWYQQKPGKAPKVLIYFTSSLHSGVPSRFSGSGSGTDFTLTISSLQPEDFATYYCQQYSTVPWTFGQGTKVEIKRTVAAPSVFIFPPSDEQLKSGTASVVCLLNNFYPREAKVQWKVDNALQSGNSQESVTEQDSKDSTYSLSSTLTLSKADYEKHKVYACEVTHQGLSSPVTKSFNRGEC
notes: also called DVD579H; DVD579L
In experiment [3], B5 had an IC50 of 5840 pM.

B6: DVD050 (bispecific antibody, human IgG1, kappa)
heavy: EVQLVESGGGLVQPGGSLRLSCAASGFSFSSEPISWVRQAPGKGLEWVSSITGKNGYTYYADSVKGRFTISADTSKNTAYLQMNSLRAEDTAVYYCARWGKKVYGMDVWGQGTLVTVSSASTKGPEVQLVESGGGLVQPGGSLRLSCAASGYTFTNYGMNWVRQAPGKGLEWVGWINTYTGEPTYAADFKRRFTFSLDTSKSTAYLQMNSLRAEDTAVYYCAKYPHYYGSSHWYFDVWGQGTLVTVSS[omitted - human IgG1 constant region]
light: DIQMTQSPSSLSASVGDRVTITCRASQSISSYLAWYQQKPGKAPKLLIYGASSRASGVPSRFSGSGSGTDFTLTISSLQPEDFATYYCQQYMSVPITFGQGTKVEIKRTVAAPDIQMTQSPSSLSASVGDRVTITCSASQDISNYLNWYQQKPGKAPKVLIYFTSSLHSGVPSRFSGSGSGTDFTLTISSLQPEDFATYYCQQYSTVPWTFGQGTKVEIKRTVAAPSVFIFPPSDEQLKSGTASVVCLLNNFYPREAKVQWKVDNALQSGNSQESVTEQDSKDSTYSLSSTLTLSKADYEKHKVYACEVTHQGLSSPVTKSFNRGEC
notes: N-terminal VD NRP1, C-terminal VD VEGF; also called DVD050H; DVD050L
In experiment [4], B6 registered a Kd of 1440 pM, a koff of 0.000261 s⁻¹ and an on-rate constant (kon) of 182000 M⁻¹ s⁻¹.

B7: DVD049 (bispecific antibody, human IgG1, kappa)
heavy: EVQLVESGGGLVQPGGSLRLSCAASGYTFTNYGMNWVRQAPGKGLEWVGWINTYTGEPTYAADFKRRFTFSLDTSKSTAYLQMNSLRAEDTAVYYCAKYPHYYGSSHWYFDVWGQGTLVTVSSASTKGPEVQLVESGGGLVQPGGSLRLSCAASGFSFSSEPISWVRQAPGKGLEWVSSITGKNGYTYYADSVKGRFTISADTSKNTAYLQMNSLRAEDTAVYYCARWGKKVYGMDVWGQGTLVTVSS[omitted - human IgG1 constant region]
light: DIQMTQSPSSLSASVGDRVTITCSASQDISNYLNWYQQKPGKAPKVLIYFTSSLHSGVPSRFSGSGSGTDFTLTISSLQPEDFATYYCQQYSTVPWTFGQGTKVEIKRTVAAPDIQMTQSPSSLSASVGDRVTITCRASQSISSYLAWYQQKPGKAPKLLIYGASSRASGVPSRFSGSGSGTDFTLTISSLQPEDFATYYCQQYMSVPITFGQGTKVEIKRTVAAPSVFIFPPSDEQLKSGTASVVCLLNNFYPREAKVQWKVDNALQSGNSQESVTEQDSKDSTYSLSSTLTLSKADYEKHKVYACEVTHQGLSSPVTKSFNRGEC
notes: N-terminal VD VEGF, C-terminal VD NRP1; also called DVD049H; DVD049L
In experiment [5], B7 came in with an equilibrium dissociation constant (Kd) of 1280 pM, a dissociation rate constant (koff) of 0.000181 s⁻¹ and a kon of 142000 M⁻¹ s⁻¹.

B8: DVD046 (bispecific antibody, human IgG1, kappa)
heavy: QVQLVESGGGLVKPGGSLRLSCAASGFTFSDYYMSWIRQAPGKGLEWVSYISSSGSTIYYADSVKGRFTISRDNAKNSLYLQMNSLRAEDTAVYYCARDEYNSGWYVLFDYWGQGTLVTVSSASTKGPEVQLVESGGGLVQPGGSLRLSCAASGYTFTNYGMNWVRQAPGKGLEWVGWINTYTGEPTYAADFKRRFTFSLDTSKSTAYLQMNSLRAEDTAVYYCAKYPHYYGSSHWYFDVWGQGTLVTVSS[omitted - human IgG1 constant region]
light: DIQMTQSPSSVSASVGDRVTITCRASQGISSWLAWYQQKPGKAPNLLIYEASSLQSGVPSRFGGSGSGTDFTLTISSLQPEDFATYYCQQANGFPWTFGQGTKVEIKRTVAAPDIQMTQSPSSLSASVGDRVTITCSASQDISNYLNWYQQKPGKAPKVLIYFTSSLHSGVPSRFSGSGSGTDFTLTISSLQPEDFATYYCQQYSTVPWTFGQGTKVEIKRTVAAPSVFIFPPSDEQLKSGTASVVCLLNNFYPREAKVQWKVDNALQSGNSQESVTEQDSKDSTYSLSSTLTLSKADYEKHKVYACEVTHQGLSSPVTKSFNRGEC
notes: N-terminal VD HGF, C-terminal VD VEGF; also called DVD046H; DVD046L
For B8, in the experiment with HGF, the equilibrium dissociation constant (Kd) was < 23.6 pM, the off-rate (koff) turned out to be 0.000236 s⁻¹ and the on-rate constant (kon) is > 1e+07 M⁻¹ s⁻¹.
